Results: PubChem BioAssay AID2147 (National Center for Advancing Translational Sciences (NCATS), 2009)
The campaign covered roughly 230,000 compounds. About 3,600 (1.6%) were called active. Inconclusive means that the source gave no clear call. Such entries were picked first, then a sample of the others. The call rests on the fitted dose curve; in most records, active means well fitted inhibition curve with a large enough effect (not every such curve was filed as active); inconclusive means small, poorly fitted or top-dose-only effect, or another doubt; inactive means no such curve, though single readings can be large or run the other way. Potencies beside an inconclusive call are fits to weak or partial responses and may not hold up.

biological target: Lysine-specific demethylase 4E (Homo sapiens) (UniProt B2RXH2); assay: qHTS Assay for Inhibitors of Human Jumonji Domain Containing 2E (JMJD2E); details: JMJD2E catalytic domain, FDH-coupled NADH fluorescence (FDH is formaldehyde dehydrogenase); series mostly up to 57.1 µM; activity change, negative = inhibition: at the top concentration
Further: nearly all actives have a fitted effect of over 50% in size.
Potency means the concentration at half of the fitted maximal effect; tags describe the fitted curve by direction and shape.
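Wherever activity change, negative = inhibition is given: 0% = wells with enzyme and -100% = buffer wells without enzyme.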

Chain of UniProt B2RXH2 (B2RXH2 whole entry, looked up, the tested form may be a part): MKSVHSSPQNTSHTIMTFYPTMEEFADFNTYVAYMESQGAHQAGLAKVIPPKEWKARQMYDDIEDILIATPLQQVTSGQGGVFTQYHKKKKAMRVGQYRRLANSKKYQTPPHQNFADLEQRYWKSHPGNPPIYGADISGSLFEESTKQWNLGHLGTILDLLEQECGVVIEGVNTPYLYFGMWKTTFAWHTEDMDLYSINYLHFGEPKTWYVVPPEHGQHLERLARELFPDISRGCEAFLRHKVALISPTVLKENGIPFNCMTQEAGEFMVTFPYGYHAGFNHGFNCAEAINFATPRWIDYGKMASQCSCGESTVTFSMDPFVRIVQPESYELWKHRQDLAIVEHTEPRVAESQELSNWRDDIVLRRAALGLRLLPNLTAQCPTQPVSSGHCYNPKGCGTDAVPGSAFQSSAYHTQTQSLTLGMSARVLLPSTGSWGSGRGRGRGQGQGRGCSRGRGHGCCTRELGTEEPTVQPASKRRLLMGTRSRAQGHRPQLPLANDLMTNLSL

Q: With COc1cc(-c2c(C#N)c(N)nc3c2c(C)nn3-c2ccc(C)c(C)c2)cc(OC)c1OC as the compound, how does the Potency read?
A: inconclusive: 28.2 µM [inhibitor, partial curve]

Q: Which Potency does the source give for CCN(CC)c1ccc(/C=N/OCC(=O)N2CCCc3ccccc32)cc1 here?
A: inconclusive: 28.2 µM [inhibitor, single point]

Q: Which “activity change, negative = inhibition” value does the source give for CC(C)c1nc(N(C)S(C)(=O)=O)nc(-c2ccc(F)cc2)c1/C=C/C(O)CC(O)CC(=O)O (stereo not drawn) here?
A: inactive: -2.13%

Q: With Cc1cccc(-n2c(SCC(N)=O)nc3c(c2=O)C2(CCCC2)Cc2ccccc2-3)c1 as the compound, how does the Potency read?
A: inconclusive: 35.5 µM [inhibitor, single point]

Q: Which Potency does the source give for CC(=O)Nc1nonc1-c1nc2ccccc2n1N(C(C)=O)C(C)=O here?
A: inconclusive: 35.5 µM [inhibitor, single point]

Q: Which Potency does the source give for O=C(NC12CC3CC(CC(C3)C1)C2)c1ccc(-c2cccc(Cl)c2)o1 here?
A: inconclusive: 39.8 µM [inhibitor, single point]

Q: How did the “activity change, negative = inhibition” value turn out when COC(=O)c1ccc(C(=O)NC(=S)Nc2ccc3nc(SC)sc3c2)cc1 was run?
A: inactive: 6.92%

Q: For O=C1NCCCC2c3c(cc(Br)c(O)c3Br)OC12N1CCOCC1 (stereo not drawn), which Potency is on record?
A: inconclusive: 28.2 µM [inhibitor, single point]

Q: For O=C1c2c(O)cc(O)cc2O[C@H](c2ccc(O)c(O)c2)[C@@H]1O, which Potency is on record?
A: active: 14.1 µM

Q: How did the Potency turn out when COc1cc2cc(C(c3nnnn3C3CCCC3)N3CCCCC3)c(=O)[nH]c2cc1OC (stereo not drawn) was run?
A: inconclusive: 3.16 µM [inhibitor, full curve]

Q: With CCn1nc(C(C)C(=O)O)c2ccccc2c1=O (stereo not drawn) as the compound, how does the “activity change, negative = inhibition” value read?
A: inactive: -15.9%

Q: CC1=C(C(=O)OC(C)C)C(c2cncc(-c3ccc(F)cc3)c2)C(C#N)=C(N)O1 (stereo not drawn) was tested. Which Potency did it give?
A: inconclusive: 31.6 µM [inhibitor, single point]

Q: How did the Potency turn out when O=C(N/C=C/c1ccco1)NCc1ccccc1 was run?
A: inconclusive: 25.1 µM [inhibitor, single point]

Q: Which Potency does the source give for Cc1ccc(C)c(NC(=S)Nc2cccc3cnccc23)c1 here?
A: active: 28.2 µM

Q: How did the Potency turn out when Cc1ccc(NC(=O)c2cc(NC(=O)c3ccco3)ccc2N2CCCCC2)cc1 was run?
A: inconclusive: 14.1 µM [inhibitor, partial curve]

Q: How did the Potency turn out when COc1ccc(-c2cc(C(F)(F)F)nc(SCc3cccc(C(=O)O)c3)n2)cc1 was run?
A: inconclusive: 35.5 µM [inhibitor, single point]

Q: For O=C(c1ccc(Cn2c(=O)[nH]c3ccccc3c2=O)cc1)N1CCN(c2ccc(F)cc2)CC1, which Potency is on record?
A: inconclusive: 39.8 µM [inhibitor, single point]

Q: Which Potency does the source give for Cn1c(-c2ccc(Cl)cc2)cnc1NCc1cc2c(cc1[N+](=O)[O-])OCO2 here?
A: inconclusive: 39.8 µM [inhibitor, single point]
